Test results taken from the supplement of paper PMC3334620.
Over roughly 33,000 sequences, “E-score (-0.5 to 0.5)” has its median near -0.012; the highest 2% begin near 0.27. Some of the results follow.

Molecular target: T1, Vhr1 (UniProt P40522)
T1 sequence: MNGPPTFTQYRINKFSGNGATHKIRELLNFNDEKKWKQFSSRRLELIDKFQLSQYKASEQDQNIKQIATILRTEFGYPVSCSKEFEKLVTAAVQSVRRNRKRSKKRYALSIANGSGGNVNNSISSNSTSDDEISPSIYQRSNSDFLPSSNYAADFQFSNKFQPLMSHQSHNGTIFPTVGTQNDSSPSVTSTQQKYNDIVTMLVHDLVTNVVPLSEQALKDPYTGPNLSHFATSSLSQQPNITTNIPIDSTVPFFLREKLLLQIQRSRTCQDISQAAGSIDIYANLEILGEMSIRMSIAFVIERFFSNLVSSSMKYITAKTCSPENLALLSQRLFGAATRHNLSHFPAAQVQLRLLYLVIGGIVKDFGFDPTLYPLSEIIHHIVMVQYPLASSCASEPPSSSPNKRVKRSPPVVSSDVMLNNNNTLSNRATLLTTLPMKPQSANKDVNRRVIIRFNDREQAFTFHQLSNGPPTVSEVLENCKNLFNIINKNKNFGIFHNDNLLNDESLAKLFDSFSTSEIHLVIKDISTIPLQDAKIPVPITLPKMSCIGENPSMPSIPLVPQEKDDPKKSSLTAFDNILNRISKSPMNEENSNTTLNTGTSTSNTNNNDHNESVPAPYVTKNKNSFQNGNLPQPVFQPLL
Test: PBM E-score (8-mer binding enrichment) (E-score (-0.5 to 0.5)); higher = stronger / more preferred TF binding; most listed sequences are background and not binding sites
Conditions: protein concentration: 200 nM; construct: GST-full length
In short: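 Universal all-10-mer Agilent arrays, fresh or stripped once, were converted to double-stranded form by primer extension. GST-tagged yeast transcription factors from PURExpress in vitro transcription/translation, full-length or DNA-binding domain only, were applied at about 100-200 nM and detected with fluorescent anti-GST. After masliner normalisation, the Universal PBM Analysis Suite scored each ungapped eight-base word together with its reverse complement by E-score.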

Sequence	PBM E-score
AGCCACGC	-0.0579
ATAGTTTG	0.205
AAGTTCCA	-0.168
CAAGGGCC	-0.201
AGGAGTGG	0.0494
CACTAGGC	0.0119
CACCAAAA	0.102
ACTACGGA	0.117
AACACTGC	0.0891
ATTCAAGC	-0.00045
TCTGGTCA	0.0764
CAATCATA	0.317
TAAGGGCA	-0.192
ACCAGGGC	-0.0996
ATCGGTAG	-0.0922
GATAAAAC	0.112
TACCCGGA	0.0286
CCGAGTCA	0.451
CCAATGGC	-0.176
AGTCAGCC	0.402
GGAAGACA	-0.00163
AATACCAT	0.205
TAGTCATA	0.356
AAAAGGTA	-0.158
ACTCCGAA	0.116

Sequence	PBM E-score
ACTATTAG	0.0582
CATGTAAA	-0.129
ATAAAGAA	-0.109
CTACCCCA	-0.0606
CTGATCTA	0.088
AGCAGCGG	0.0635
ACCGCTCT	-0.0964
CATGAATC	0.31
AATCGTAA	-0.0173
CCAGCATC	0.113
GAGACCGC	-0.236
CGCTTGTC	-0.0745
GTGCTGTA	0.0582
GGACAACA	0.135
ACCTTCGA	-0.0486
ACACGACT	0.277
CATCGCAA	0.097
GAACCTGA	0.0239
CAGCTTAA	-0.0789
GGAAAGTA	-0.122
AACTGTGA	-0.00841
CCCGTCAG	-0.122
ACCCCTCA	0.0263
TCACGGGA	0.0145
AGATACAT	0.186

Sequence	PBM E-score
TGACAAAA	-0.241
TGCGCCCA	-0.191
AACCAATC	0.126
AAGCGAGC	-0.0812
TGGACCCA	-0.0213
GGACACCC	-0.163
GCAAGCGC	0.0638
AAATGAGT	0.204
ACGAAAGT	-0.0941
AACTTCAA	-0.245
ATAAAACC	0.0132
CTACGCGA	-0.233
ATAAGAGA	0.0968
GTGAAATA	-0.0751
ATACATAG	0.108
CATGACAG	0.115
GAGGCGCA	-0.0794
AAGTGCGC	0.0126
GTATAAAC	0.18
GGAGCCTA	-0.137
CATAAGAA	0.0486
CTAATAGC	-0.068
AAATAGGC	-0.1
ATGTCAAG	-0.117
AGTATGGG	0.133

Sequence	PBM E-score
GAAGACCC	-0.0779
TAAATGGA	-0.0943
CCCAAATA	-0.0748
AATTATAA	-0.106
TACCTTGA	0.114
ATACCGAT	-0.0534
TAAGAAGA	-0.115
AAAGATGC	-0.193
ACCATACT	0.24
CGACTCCC	0.321
GCGAACCA	0.0587
CCACGCAG	0.079
ATGAAAGG	-0.0863
ATGCGATC	-0.0199
CATTAATC	0.126
GGAGGTCA	-0.163
AGGACCAT	0.029
GATCATAA	0.0899
AAACATAC	0.0876
AGTCCTAC	0.163
TCGCGGCA	-0.114
CCTACGGC	-0.13
CACGACTG	0.178
ACCGTTGC	-0.0641
CGAGCTAC	-0.0186

Sequence	PBM E-score
TACGGTCA	-0.00125
AGGTTGCG	-0.0958
CGCACAAA	0.119
ACGAACCT	-0.173
ATTCGGAA	-0.00853
CTAGTATA	0.0509
AGGGTACT	0.0423
ATCCAGCG	0.0641
ACTCAGAG	0.222
TAGACATA	0.187
AGACTCAT	0.353
AATGATGT	0.095
GAAGCCTC	-0.0476
TGAGTCCA	0.3
AGTTCCGG	-0.0219
AACTACAA	0.212
GCCTTACC	-0.167
GGTGCGGA	0.072
GCACCGTA	0.0842
GGTTAGGA	0.0588
AACCATAT	0.218
CGGAGCGA	0.0369
GGAGTAAA	0.0262
ATCGCGCC	0.174
AACAGCTT	-0.0895

Sequence	PBM E-score
CACCTGAC	0.261
ATAAGCTG	0.00054
ATTCGGGG	0.0714
CGGCTCCC	-0.105
CGCGCTTC	0.0933
CAAGTGGC	-0.134
GCCAAGAA	-0.126
TCTCAAAA	-0.143
ACTAGCCA	0.157
AAGACTCC	0.158
CAGCTTTA	-0.231
AGCGCCTA	-0.00947
CGGGTGTC	0.0391
GGGTCGGA	0.028
ACTGGTGG	0.0234
GAACCTCA	-0.125
GTGGACAA	-0.106
CGAGTGTC	0.121
AAGGGTCC	-0.192
CTATTACA	0.0952
TAAGCCCA	0.0458
AACGTCCC	-0.269
CGATCGCC	0.0829
CCAGCTAC	0.0616
GAAGTACA	0.00849

Sequence	PBM E-score
AAAGGAGC	-0.17
CACGCTAC	-0.0797
ACTCGGTG	0.189
ATGTAACC	0.106
CAGACAAC	0.0301
ACACGGAG	-0.0139
CTCTTTCC	-0.0776
CCTACTGA	0.00752
GCCGGATA	-0.004
GGGTTTCA	0.0315
GGTCCCGA	-0.0375
CGCGCTAC	-0.0337
ATAGCCTC	0.0622
AAACTTGG	-0.0661
TGTCAACA	-0.192
AAAAGCTC	-0.264
CGTGTAAA	-0.144
CCTTGGTC	-0.287
CTATAGAG	-0.178
CGCCACGC	-0.148
AACCAGGA	-0.00068
TAGCAAAA	-0.216
